Data from PMC11995724, “Antibiotic target discovery by integrated phenotypic and activity-based profiling of electrophilic fragments” (Cell chemical biology, 2025).
In all, about 3,200 compounds went through this assay and about 110 (3.4%) showed an effect of 50% or more. The list shows a part of the results.

What follows are compounds tested on T1, V. cholerae SAD30. Conditions: relative growth, OD600, LB; 25 µM; inhibitor.
T1 construct: SAD30
Parameters: species or system S. aureus MSSA476 (TSB) or V. cholerae SAD30 (LB); 384-well bacterial growth screen at 25 uM, OD600 relative to DMSO control

SMILES	% of control remaining [%]
C=CC(=O)NCCN1CCCCC1C (centres unmarked) [2-M09, N-[2-(2-methylpiperidin-1-yl)ethyl]prop-2-enamide]	90.5047
C=CC(=O)N1CCC(O)(C(F)(F)C(N)=O)C1 (centres unmarked) [2-C16, 2,2-difluoro-2-[3-hydroxy-1-(prop-2-enoyl)pyrrolidin-3-yl]acetamide]	94.2102
COc1ccc(C=C(C#N)C(=O)Nc2c(C)cccc2C)cc1OC [8-A17, 2-cyano-3-(3,4-dimethoxyphenyl)-N-(2,6-dimethylphenyl)prop-2-enamide]	86.6757
C=CC(=O)Nc1cnn(-c2ccncc2)c1C(F)F [1-O09, N-[5-(difluoromethyl)-1-(pyridin-4-yl)-1H-pyrazol-4-yl]prop-2-enamide]	88.4903
CC(C)NC(=O)C(C#N)=Cc1cc(F)ccc1F [8-C08, 2-cyano-3-(2,5-difluorophenyl)-N-(propan-2-yl)prop-2-enamide]	74.0313
Cc1ccc(-c2csc(NC(=O)CCl)n2)cc1C [5-F16, 2-chloro-N-[4-(3,4-dimethylphenyl)-1,3-thiazol-2-yl]acetamide]	91.9618
C=CC(=O)NCc1cc(Cl)cc(S(C)(=O)=O)c1 [3-N15, N-[(3-chloro-5-methanesulfonylphenyl)methyl]prop-2-enamide]	93.8541
C=CC(=O)Nc1cc(NC(=O)[C@H]2C[C@@H](C(C)=O)C2(C)C)ccc1F [2-H22, (1S,3R)-3-acetyl-N-[4-fluoro-3-(prop-2-enamido)phenyl]-2,2-dimethylcyclobutane-1-carboxamide]	103.783
C=CC(=O)Nc1ccc2cc(N(C)C)ccc2c1 [1-E19, N-[6-(dimethylamino)naphthalen-2-yl]prop-2-enamide]	72.6457
C=CC(=O)Nc1cc(NC(=O)C2(OC)CCOC2)ccc1F (centres unmarked) [3-D05, N-[4-fluoro-3-(prop-2-enamido)phenyl]-3-methoxyoxolane-3-carboxamide]	99.5001
Cc1cc(C(=O)CCl)c(C)n1-c1cc(Cl)cc(Cl)c1 [10-I04, 2-chloro-1-[1-(3,5-dichlorophenyl)-2,5-dimethyl-1H-pyrrol-3-yl]ethan-1-one]	87.746
O=C(CCl)NCCc1nc2c(s1)CCCCC2 [4-J21, 2-chloro-N-(2-{4H,5H,6H,7H,8H-cyclohepta[d][1,3]thiazol-2-yl}ethyl)acetamide]	113.004
C=CC(=O)N1CCC(c2nnnn2C)CC1 [2-I06, 1-[4-(1-methyl-1H-1,2,3,4-tetrazol-5-yl)piperidin-1-yl]prop-2-en-1-one]	93.747
COc1ccccc1C=CC=C(C#N)C(=O)Nc1ccccn1 [9-L17, 2-cyano-5-(2-methoxyphenyl)-N-(pyridin-2-yl)penta-2,4-dienamide]	76.2067
O=C(CCl)NCc1ccccc1CS(=O)(=O)N1CCOCC1 [4-G08, 2-chloro-N-({2-[(morpholine-4-sulfonyl)methyl]phenyl}methyl)acetamide]	100.755
N#CC(C(=O)Nc1ccc(Cl)cc1)=C(S)Nc1ccccc1 [8-H22, N-(4-chlorophenyl)-2-cyano-3-(phenylamino)-3-sulfanylprop-2-enamide]	67.777
C=CC(=O)N1CCCc2cccc(F)c21 [1-L19, 1-(8-fluoro-1,2,3,4-tetrahydroquinolin-1-yl)prop-2-en-1-one]	87.8924
CC(C)Cc1ccc(C(C)NC(=O)CCl)cc1 (centres unmarked) [4-H03, 2-chloro-N-{1-[4-(2-methylpropyl)phenyl]ethyl}acetamide]	114.384
CC(Cl)C(=O)N1CCC(n2ncc3ccccc32)C1 (centres unmarked) [7-K04, 2-chloro-1-[3-(1H-indazol-1-yl)pyrrolidin-1-yl]propan-1-one]	86.833
Cl.O=C(CCl)c1ccncc1 [10-M09, 2-chloro-1-(pyridin-4-yl)ethan-1-one hydrochloride]	-0.1559
C=CC(=O)NCCn1nnnc1C [2-A03, N-[2-(5-methyl-1H-1,2,3,4-tetrazol-1-yl)ethyl]prop-2-enamide]	117.215
CCC(=O)NC1CCN(C(=O)CCl)C1 (centres unmarked) [5-G04, N-[1-(2-chloroacetyl)pyrrolidin-3-yl]propanamide]	99.359
CC1CCN(C(=O)CCl)c2cc(Cl)ccc2S1 (centres unmarked) [4-G16, 2-chloro-1-(7-chloro-2-methyl-2,3,4,5-tetrahydro-1,5-benzothiazepin-5-yl)ethan-1-one]	96.4417
C=CC(=O)NCc1ccccc1-n1nc(C)cc1C [3-P19, N-{[2-(3,5-dimethyl-1H-pyrazol-1-yl)phenyl]methyl}prop-2-enamide]	109.204
N#CC(=Cc1ccc(Cl)cc1Cl)C(N)=O [8-H17, 2-cyano-3-(2,4-dichlorophenyl)prop-2-enamide]	73.0795
CC(NC(=O)C(C#N)=Cc1ccco1)c1cccc(-n2ccnc2)c1 (centres unmarked) [9-H04, 2-cyano-3-(furan-2-yl)-N-{1-[3-(1H-imidazol-1-yl)phenyl]ethyl}prop-2-enamide]	88.8511
C=CC(=O)N1CCC(n2ccnn2)CC1 [3-K09, 1-[4-(1H-1,2,3-triazol-1-yl)piperidin-1-yl]prop-2-en-1-one]	92.7954
Cc1c(C=C(C#N)C(=O)Nc2ccccc2F)cc(C#N)n1C [8-A13, 2-cyano-3-(5-cyano-1,2-dimethyl-1H-pyrrol-3-yl)-N-(2-fluorophenyl)prop-2-enamide]	90.4827
O=C(CCl)Nc1cccc(S(=O)(=O)N2CCOCC2)c1 [4-P08, 2-chloro-N-[3-(morpholine-4-sulfonyl)phenyl]acetamide]	121.458
